Reference: patent US6344564B1, “Fungicidal 2-imidazolin-5-ones and 2-imidazoline-5-thiones” (priority 1992, dated 2002)

Experiments:
[1] = system: Puccinia recondita; experiment: In vivo comparative test on Puccinia recondita (brown rust of wheat), IC75 of enantiomers and racemic modifications; conditions: concentration at which 75% inhibition of the disease is observed; wheat (Talent) sprayed 24 hours before infection with Puccinia recondita spores; monitored between 8th and 15th day after infection vs untreated control
Method: An aqueous pension of the active material to be tested is prepared, by fine milling, having the following composition:
Tween 80 surface-active agent (oleate of polycondensate of ethylene oxide with sorbitan) diluted to 10% in water: 0.3 ml
(§1) volume made up to 60 ml with water.
The active material to be tested is either one of the two enantiomers of formula (I′″) according to the invention or the corresponding racemic modification.
(§2) This aqueous suspension is then diluted with water to produce the desired concentration of active material.
Wheat of the Talent variety, in pots, sown on a 50/50 peat/pozzolana earth substrate, is treated at the 10 cm high stage by spraying the above aqueous suspension.
After 24 hours, an aqueous suspension of spores (100,000 sp/cm^3) of Puccinia recondita is sprayed on the wheat; this suspension was obtained from infected seedlings. The wheat is then placed for 24 hours in an incubation cell at approximately 20° C. and at 100% relative humidity, and then for 7 to 14 days at 60% relative humidity.
Monitoring of the condition of the seedings is carried out between the 8th an 15th day after infection, by comparison with an untreated control.

[2] = system: Puccinia recondita; experiment: In vivo test on Puccinia recondita (brown rust of wheat); conditions: dose of 1 g/l, wheat sprayed 24 hours before infection, monitoring between 8th and 15th day after infection, read-out: protection
Method: An aqueous suspension of the active material to be tested is prepared, by fine milling, having the following composition:
Tween 80 surface-active agent (oleate of polyoxyethylenated derivative of sorbitan) diluted to 10% in water: 0.3 ml
as §1, §2
Wheat, in pots, sown on a 50/50 peat/pozzolana earth substrate, is treated at the 10 cm high stage by spraying the above aqueous suspension.
After 24 hours, an aqueous suspension of spores (100,000 sp/cm^3) of Puccinia recondita is sprayed on the wheat; this suspension was obtained from infected plants. The wheat is then placed for 24 hours in an incubation cell at approximately 20° C. and at 100% relative humidity, and then for 7 to 14 days at 60% relative humidity.
Monitoring of the condition of the plants is carried out between the 8th and 15th day after infection, by comparison with an untreated control.

Structure (SMILES)	IC75 (ppm) [1]	pest or weed control at 1000 µg/mL [2] [%]
COC1=NC(C)(c2ccc(F)cc2)C(=O)N1Nc1ccccc1 (racemic) [525 + 526]	12 ppm	
CC1=NC2(CCc3ccccc32)C(=O)N1Nc1ccccc1 (centres unmarked) [Compound 228]		≥ 75
CSC1=NC(C)(c2ccc(F)cc2)C(=O)N1Nc1cccc(F)c1 (racemic) [513 + 514]	37 ppm	
CSC1=NC2(CCc3ccccc32)C(=O)N1Nc1ccccc1 (centres unmarked) [Compound 98]		≥ 75
CSC1=N[C@@](C)(c2ccccc2)C(=O)N1Nc1ccccc1 [Compound 501, (+)-(4S)-4-methyl-2-methylthio-4-phenyl-1-phenylamino-2-imidazolin-5-one]	37 ppm	
COC1=NC(C)(c2ccc(F)cc2)C(=O)N1Nc1cccc(F)c1 (racemic) [527 + 528]	37 ppm	
COC1=NC(C)(c2ccc(F)cc2)C(=O)N1Nc1ccccc1 (single isomer, unassigned) [Compound 526]	>1000 ppm	
COC1=NC(C)(c2ccc(Br)cc2)C(=O)N1Nc1ccccc1 (centres unmarked) [Compound 505]	110-330 ppm	
CSC1=NC(C)(c2ccccc2)C(=O)N1N(C)c1ccccc1 (centres unmarked) [Compound 22, 4-methyl-1-(N-methyl-N-phenylamino)-2-methylthio-4-phenyl-2-imidazolin-5-one]		≥ 75
CSC1=NC(C)(c2ccc(F)cc2)C(=O)N1Nc1ccccc1 (centres unmarked) [Compound 68, 4-Methyl-2-methylthio-4-(4-fluorophenyl)-1-phenylamino-2-imidazolin-5-one]		≥ 75
CSC1=NC(C)(c2ccccc2)C(=O)N1Nc1ccccc1 (racemic) [501 + 502]	330 ppm	
CSC1=NC(C)(c2ccc(F)cc2)C(=O)N1Nc1ccccc1 (racemic) [511 + 512]	37-110 ppm	
CC1=NC(C)(c2ccccc2)C(=O)N1Nc1ccccc1 (centres unmarked) [Compound 201, 2,4-dimethyl-4-phenyl-1-phenylamino-2-imidazolin-5-one]		≥ 75
CSC1=NC(C)(c2ccccc2)C(=O)N1Nc1ccccc1 (centres unmarked) [Compound 502]	>1000 ppm	
COC1=NC(C)(c2ccc(F)cc2)C(=O)N1Nc1cccc(F)c1 (single isomer, unassigned) [Compound 527]	4 ppm	
COC1=NC(C)(c2ccc(Br)cc2)C(=O)N1Nc1ccccc1 (racemic) [505 + 506]	330 ppm	
COC1=NC(C)(c2ccccc2)C(=O)N1Nc1ccccc1 (centres unmarked) [Compound 504]	>1000 ppm	
CSC1=NC(C)(c2ccccc2)C(=O)N1Nc1ccccc1 (centres unmarked) [Compound 9, 4-methyl-2-methylthio-4-phenyl-1-phenylamino-2-imidazolin-5-one]		≥ 75
COC1=NC(C)(c2ccccc2)C(=O)N1Nc1ccccc1 (racemic) [503 + 504]	330 ppm	
CSC1=N[C@@](C)(c2ccc(F)cc2)C(=O)N1Nc1ccccc1 [Compound 511]	12-37 ppm	
COC1=NC(C)(c2ccc(Br)cc2)C(=O)N1Nc1ccccc1 (centres unmarked) [Compound 506]	>1000 ppm	
COC1=N[C@@](C)(c2ccccc2)C(=O)N1Nc1ccccc1 [Compound 503, (+)-(4S)-4-methyl-2-methoxy-4-phenyl-1-phenylamino-2-imidazolin-5-one]	110 ppm	
CSC1=N[C@@](C)(c2ccc(F)cc2)C(=O)N1Nc1cccc(F)c1 [Compound 513]	12 ppm	
